# Experimental data published in PubChem BioAssay AID624171 (National Center for Advancing Translational Sciences (NCATS), 2012).
# About 1,200 (0.29%) of roughly 410,000 compounds were called active. The shares of active, inactive and inconclusive entries below differ from those in the screen. The call rests on the fitted dose curve; in most records, active means well fitted activation curve with a large enough effect; inconclusive means small, poorly fitted or top-dose-only effect; inactive means flat fitted curve, though single readings scatter. Potencies beside an inconclusive call are fits to weak or partial responses and may not hold up.
# Assay: qHTS of Nrf2 Activators; further: nearly all actives have a fitted effect of over 65% in size
# Conditions: AREc32 ARE-luciferase reporter (MCF7-derived line), luminescence, 24 h; series mostly up to 46.1 µM
# Method in brief: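 Quantitative high-throughput format: AREc32 reporter cells, 1000 per well, received compound by pin transfer and were incubated 24 hr at 37 deg C, 5% CO2, before Steady-Glo luminescence detection.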
# Potency means the concentration at half of the fitted maximal effect; tags describe the fitted curve by direction and shape.
row,SMILES,Potency
1,Cc1cccc(C)c1NC(=O)CSc1nnc(-c2ccco2)c(-c2ccco2)n1,"inconclusive: 14.1 µM [activator, partial curve, poor fit]"
2,O=C(COC(=O)c1ccccc1C(=O)c1ccc(Cl)cc1)NCCc1ccccc1,"inconclusive: 20 µM [activator, single point]"
3,COc1ccc(Cl)cc1NC(=O)c1cnc2sc(N3CCOCC3)nn2c1=O,"inconclusive: 20 µM [activator, partial curve, poor fit]"
4,C=C1CCC[C@]2(C)C[C@H]3OC(=O)C(CN4CC(C)OC(C)C4)[C@H]3C[C@@H]12 (stereo not given in full),"inconclusive: 14.1 µM [activator, partial curve, poor fit]"
5,CN1CCN(CCNC(=O)c2cnn(-c3ccc(Cl)cc3)c2C2CCN(C(=O)OC(C)(C)C)CC2)CC1,inactive
6,O=C(Nc1cccc2cccnc12)c1cccc(Cl)c1,"inconclusive: 11.2 µM [activator, partial curve, poor fit]"
7,O=C(Nc1ncccn1)c1ccc([N+](=O)[O-])o1,"inconclusive: 11.2 µM [activator, partial curve, poor fit]"
8,COC(=O)c1ccc(/C=C/C(=O)c2ccc(OC)c(OC)c2)cc1,"inconclusive: 31.6 µM [activator, single point]"
9,c1ccc(C2=Nn3c(nnc3-c3cccs3)SC2)cc1,"inconclusive: 4.47 µM [activator, partial curve]"
10,CN=C1S/C(=C\c2cccc(Cl)c2Cl)C(=O)N1C,"inconclusive: 28.2 µM [activator, single point]"
11,CC1CCCCC1NC(=O)/C(C#N)=C/C=C/c1ccccc1[N+](=O)[O-] (stereo not given),"inconclusive: 2.24 µM [activator, partial curve, poor fit]"
12,O=C1OC(c2cc(Br)c(O)c(Br)c2)c2ccccc21 (stereo not given),"inconclusive: 25.1 µM [activator, single point]"
13,CC(/C=C/c1ccco1)=N/NC(=O)C1COc2ccccc2O1 (stereo not given),"inconclusive: 20 µM [activator, partial curve, poor fit]"
14,CC(C)CCNC(=O)C1CCN(C(=O)c2cc3sccc3n2Cc2ccc(Cl)cc2)CC1,inactive
15,CSc1ccc(C2NN=C(c3ccccc3)S2)cc1 (stereo not given),active: 5.01 µM
16,COc1ccc(Cn2c(CO)cnc2SCc2ccc(C)cc2)cc1,inactive
17,Cc1cc(C(=O)Nc2cc(Br)ccc2O)on1,"inconclusive: 10 µM [activator, partial curve, poor fit]"
18,Nc1nsc2ccccc12,active: 11.2 µM
19,COc1ccc(-c2cc(NC(C)=O)c3ncc(-c4ccc(OC)c(OC)c4)n3c2)cc1OC,"inconclusive: 14.1 µM [activator, partial curve, poor fit]"
20,CN1/C(=C/c2cccc[n+]2C)Sc2ccccc21,inactive
21,COc1ccc2c(c1)[N+](C)(C)C(C)(C)C=C2C,inactive
22,COc1ccccc1-c1nnc(NC(C)=O)s1,"inconclusive: 3.16 µM [activator, full curve, poor fit]"
23,O=C(CCl)NCCNC(=O)c1cc(OCC(F)(F)F)ccc1OCC(F)(F)F,"inconclusive: 22.4 µM [activator, single point]"
24,COC(=O)c1cc2nc(-c3ccccc3)cc(C(F)(F)F)n2n1,"inconclusive: 6.31 µM [activator, partial curve, poor fit]"

row,SMILES,Potency
1,COc1ccc2sc3ccccc3c(=O)c2c1,"inconclusive: 14.1 µM [activator, partial curve, poor fit]"
2,Cc1ccc(C)c(SCC(=O)OC/C(O)=C(\C#N)c2nc3ccccc3[nH]2)c1,"inconclusive: 31.6 µM [activator, single point]"
3,O=[N+]([O-])c1ccccc1C=NNc1ccccc1,active: 6.31 µM
4,CCOC(=O)c1ccc(Nc2cc(C)nc(-c3ccccc3)n2)cc1,inactive
5,COC(=O)c1sccc1NC(=O)C1C2C=CC(O2)C1C(=O)O (stereo not given),"inconclusive: 31.6 µM [activator, single point]"
6,Cc1ccc(C(=O)c2c3ccc([N+](=O)[O-])cc3[n+]([O-])n2CCC(N)=O)cc1,"inconclusive: 22.4 µM [activator, single point]"
7,Nc1ccc(Oc2ncccn2)cc1,"inconclusive: 15.8 µM [activator, single point]"
8,O=C(CNC(=O)c1ccc(Cl)cc1)OCC(=O)c1ccccc1,inactive
9,CC1(C)C(=O)C=CC(=O)C(C)(C)C(=O)C=CC(=O)C(C)(C)C2=CC=C(O2)C(C)(C)C(=O)C=CC1=O,"inconclusive: 10 µM [activator, partial curve]"
10,Cc1cc(C(=O)CSc2nn3c(=O)c(C(C)(C)C)nnc3s2)c(C)n1C1CC1,"inconclusive: 35.5 µM [activator, single point]"
11,NS(=O)(=O)c1cc(C(=O)OCC(=O)Nc2ccc(Cl)cc2[N+](=O)[O-])ccc1Cl,inactive
12,Cc1ccc(C(=O)Nc2nccc(-c3cccs3)n2)cc1,"inconclusive: 10 µM [activator, partial curve, poor fit]"
13,COC(=O)Cc1nnc(NC(=O)c2ccccc2)s1,"inconclusive: 11.2 µM [activator, partial curve, poor fit]"
14,COc1ccc2sc(-c3ccc(N(C)C)cc3)c(C#Cc3cncn3C)c2c1,inactive
15,O=C(NCc1cccnc1)c1ccc([N+](=O)[O-])o1,"inconclusive: 3.16 µM [activator, partial curve, poor fit]"
16,CN(C(=O)CSc1ncnc2sccc12)C1CCCCC1,inactive
17,CCCn1c(=O)c(C(=O)NCc2ccco2)c(O)c2ccccc21,"inconclusive: 15.8 µM [activator, single point]"
18,CN(C)c1ccc(CNC(=O)CN2C(=O)C3CCCCN3c3ccc(C(=O)N4CCCC4)cc32)cc1 (stereo not given),inactive
19,Cc1ccc(N(CCC#N)C(=O)CCl)cc1C,"inconclusive: 5.01 µM [activator, single point]"
20,Cc1cc(NS(=O)(=O)c2ccc(NC(=O)/C=C/c3ccccc3)cc2)no1,"inconclusive: 20 µM [activator, single point]"
21,CC(C)Nc1nc(Cl)nc(N(C#N)CN2C(=O)c3ccccc3C2=O)n1,"inconclusive: 22.4 µM [activator, single point]"
22,CCN1C(=O)/C(=C\c2ccncc2)SC1=Nc1ccc(C)c(C)c1,"inconclusive: 25.1 µM [activator, single point]"
23,Cc1ccc2oc(=O)c(/C=C(\O)CC(C)C)nc2c1,"inconclusive: 22.4 µM [activator, single point]"
24,O=C1NC(c2ccccc2Br)=N/C1=C\c1ccco1,active: 5.62 µM

row,SMILES,Potency
1,O=c1cc(-c2ccsc2)oc2ccccc12,"inconclusive: 17.8 µM [activator, single point]"
2,COc1cccc(N2CCN(C(=O)c3cnn(-c4ccccc4Cl)c3C3CCN(C(=O)OC(C)(C)C)CC3)CC2)c1,inactive
3,Cc1ccc(-c2cc(O)cc3sc(=O)oc23)cc1C,"inconclusive: 22.4 µM [activator, single point]"
4,CCCCN(C)C(=O)CSc1c2c(nc3ccc(Cl)cc13)CCCC2,"inconclusive: 22.4 µM [activator, single point]"
5,CCN(C(=O)c1ccco1)c1nc(CC(=O)Nc2ccc(Cl)cc2)cs1,"inconclusive: 3.16 µM [activator, full curve]"
6,Cc1cccc(NC(=O)CSc2nc(-c3cccs3)nc3cc(=O)[nH]n23)c1,"inconclusive: 22.4 µM [activator, single point]"
7,CCOCCCn1c(=N)c(C(=O)NC2CCCCC2)cc2c(=O)n3ccccc3nc21,inactive
8,COc1ccc(/C=C/C(=O)C23CC4CC(CC(C4)C2)C3)cc1CN1CCOCC1,"inconclusive: 20 µM [activator, single point]"
9,Cc1ccc2cccc(OC(=O)c3c(F)cccc3Cl)c2n1,"inconclusive: 12.6 µM [activator, partial curve, poor fit]"
10,CCOC(=O)n1c(=O)oc2ccc(Cl)cc21,"inconclusive: 20 µM [activator, single point]"
11,O=c1cc(COc2ccccc2Cl)nc2scc(-c3ccccc3)n12,inactive
12,c1ccc2nc3c(ccc4ccccc43)cc2c1,"inconclusive: 10 µM [activator, partial curve]"
13,OCCOC1CCCc2oc(-c3ccccc3)c(C#CC3(O)CCCCC3)c21 (stereo not given),"inconclusive: 25.1 µM [activator, partial curve, poor fit]"
14,O=c1c2ccccc2sn1-c1cccc(Cl)c1,"inconclusive: 31.6 µM [activator, single point]"
15,O=C(/C=C/c1ccco1)Nc1cccc(S(=O)(=O)N2CCOCC2)c1,active: 5.62 µM
16,Cc1cc(C(=O)CCl)c(C)n1CCc1ccc(F)cc1,"inconclusive: 20 µM [activator, single point]"
17,CCc1nc2cccnc2n1-c1ccc(CC(=O)O)cc1,inactive
18,CC(C)C(=O)Nc1nnc(-c2ccco2)s1,active: 10 µM
19,COC(=O)[C@]12CCCCC=C1N(Cc1cccc3ccccc13)C(=O)[C@H](CC(=O)NCCC(C)C)C2,inactive
20,O=C(Nc1onc2c1CCCC2)c1ccccc1,"inconclusive: 3.55 µM [activator, full curve]"
21,Cc1ccccc1N(CC(=O)Nc1ccc(S(=O)(=O)N2CCOCC2)cc1)S(C)(=O)=O,inactive
22,O=C(Nc1ccc(S(=O)(=O)N2CCOCC2)cc1)c1ccc([N+](=O)[O-])s1,"inconclusive: 14.1 µM [activator, partial curve, poor fit]"
